Assay results: PubChem BioAssay AID588591 (National Center for Advancing Translational Sciences (NCATS), 2011)
The campaign covered roughly 390,000 compounds. About 4,700 (1.2%) were called active. The shares of active, inactive and inconclusive entries below differ from those in the screen. The call rests on the fitted dose curve; in most records, active means well fitted inhibition curve with a large enough effect; inconclusive means small, poorly fitted or top-dose-only effect, or another doubt; inactive means no such curve, though single readings can be large or run the other way. Potencies of inconclusive entries are doubtful fits and often do not repeat.

molecular target: DNA polymerase eta (Homo sapiens) (UniProt Q9Y253); assay: qHTS for Inhibitors of Polymerase Eta; conditions: recombinant Pol eta, fluorescent DNA replication assay; series mostly up to 114 µM
Outline: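 Pol eta at 10 nM preincubated with compounds 15 min at room temperature; reaction started with fluorescent substrate (50 nM final) and read kinetically at 0 and 10 min.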
Potency means the concentration at half of the fitted maximal effect; tags describe the fitted curve by direction and shape.

UniProt Q9Y253, sequence (Q9Y253 whole entry, looked up): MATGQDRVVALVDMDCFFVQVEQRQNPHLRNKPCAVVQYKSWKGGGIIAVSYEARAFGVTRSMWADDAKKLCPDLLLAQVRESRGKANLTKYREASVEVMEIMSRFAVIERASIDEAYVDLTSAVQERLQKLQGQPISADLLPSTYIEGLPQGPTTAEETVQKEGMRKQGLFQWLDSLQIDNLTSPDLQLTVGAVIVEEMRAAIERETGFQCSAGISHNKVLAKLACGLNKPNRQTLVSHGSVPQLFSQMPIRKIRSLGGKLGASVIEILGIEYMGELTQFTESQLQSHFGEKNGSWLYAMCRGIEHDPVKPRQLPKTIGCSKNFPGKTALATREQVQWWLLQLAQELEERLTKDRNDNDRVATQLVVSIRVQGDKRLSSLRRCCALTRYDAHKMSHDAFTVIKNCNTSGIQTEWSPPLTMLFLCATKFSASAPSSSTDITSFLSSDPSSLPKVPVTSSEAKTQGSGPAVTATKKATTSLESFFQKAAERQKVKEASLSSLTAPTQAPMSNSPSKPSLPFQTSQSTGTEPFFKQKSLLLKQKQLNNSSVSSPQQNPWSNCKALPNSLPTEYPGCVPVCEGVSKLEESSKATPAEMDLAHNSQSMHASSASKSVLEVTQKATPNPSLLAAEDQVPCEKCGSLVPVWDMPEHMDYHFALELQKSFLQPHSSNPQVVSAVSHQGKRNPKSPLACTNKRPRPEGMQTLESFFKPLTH

SMILES | Potency
CCC1Oc2ccccc2N(CC(=O)NCc2ccco2)C1=O (centres undefined) | inconclusive: 39.8 µM [inhibitor, partial curve, poor fit]
Cc1cc(=O)[nH]c(Nc2cccc(Cl)c2C)n1 | inactive
Cc1ccc(OCc2cc(=O)n3c(-c4ccccc4)csc3n2)cc1 | inconclusive: 56.2 µM [inhibitor, partial curve, poor fit]
CC(C)Oc1ccccc1/C=N/Nc1ccccc1[N+](=O)[O-] | inactive
COC(=O)c1cc(Cl)c(NC(=O)/C=C/c2ccc(Cl)cc2)cc1OC | inconclusive: 22.4 µM [inhibitor, full curve]
COc1cc(-c2cc(-c3ccc(O)cc3)nc(N)c2C#N)ccc1O | inactive
Cc1cc(S(=O)(=O)NCCc2csc(-c3cccc(F)c3)n2)ccc1F | inconclusive: 100 µM [inhibitor, partial curve, poor fit]
CC(=O)N1c2ccc(S(=O)(=O)NCC3CCC(C(=O)Nc4cccc(C)c4)CC3)cc2CC1C (centres undefined) | inactive
COc1cccc(/C=N/n2c(C3CCCCC3)n[nH]c2=S)c1O | inactive
O=C(N/N=C\C=C\c1ccco1)c1cc(-c2ccc3ccccc3c2)n[nH]1 | active: 50.1 µM
O=S(=O)(N/N=C/c1ccc(Cl)cc1)c1ccc(Cc2ncc(C(F)(F)F)cc2Cl)s1 | inconclusive: 12.6 µM [inhibitor, full curve, poor fit]
O=C(CSc1nc2c(sc3ccccc32)c(=O)n1CCO)NCc1ccco1 | inconclusive: 17.8 µM [inhibitor, partial curve, poor fit]
Cc1[nH]c(=O)[nH]c(=O)c1NC(=O)c1sc2nc3c(C)cccc3cc2c1N | inconclusive: 15.8 µM [inhibitor, partial curve, poor fit]
O=[N+]([O-])c1ccc2c(c1)-c1ccccc1C2=NO | inconclusive: 28.2 µM [inhibitor, partial curve]
CC(C)C[C@H](NC(=O)OC(C)(C)C)c1nnc(SCC(=O)Nc2ccc(Br)cc2)o1 | inconclusive: 39.8 µM [inhibitor, partial curve, poor fit]
COc1ccc(Cl)cc1C(=O)NCC(c1ccc(N(C)C)cc1)N1CCCC1 (centres undefined) | inactive
COc1ccc(-n2c(=O)c3c4c(sc3n(CC(=O)C(C)(C)C)c2=O)CCCC4)c(OC)c1 | inactive
CCCCCCc1cc2cc(-c3nnc(-c4ccccc4OC)o3)c(=O)oc2cc1O | active: 8.91 µM
COC(=O)Cc1ccc(NC(=S)Nc2cccc(C)n2)cc1 | inconclusive: 89.1 µM [inhibitor, partial curve, poor fit]
Cc1ccc2nc(/C(C#N)=C/c3ccc(-c4ccc(C(=O)OC(C)C)cc4)o3)[nH]c2c1 | inconclusive: 89.1 µM [inhibitor, single point]
C/C(=N\NS(=O)(=O)c1ccc(Cl)c([N+](=O)[O-])c1)c1ccc(C)o1 | inconclusive: 89.1 µM [inhibitor, single point]
Cc1cccc(NC(=O)Nc2ccc(C)c(C)c2)n1 | inconclusive: 25.1 µM [inhibitor, single point]

SMILES | Potency
O=C(CSc1nnc2[nH]c(=O)cc(-c3ccccc3)n12)Nc1ccccc1C(F)(F)F | inactive
O=c1cc(-c2ccc(O)cc2)oc2ccc3ccccc3c12 | inconclusive: 35.5 µM [inhibitor, single point]
O=c1c2cccnc2n(Cc2ccc(Cl)cc2)c(=O)n1Cc1ccc(F)cc1 | inactive
Cc1cc(C)c2c(CC(=O)NNC(=O)c3ccccc3)coc2c1 | inactive
O=C(CSc1nccn1-c1ccc(Cl)cc1)NCc1ccc2c(c1)OCO2 | inconclusive: 79.4 µM [inhibitor, partial curve, poor fit]
COc1ccc(NS(=O)(=O)c2ccc(O)c(NC(=O)c3ccc(S(=O)(=O)N4CCCCCC4)cc3)c2)cc1 | inconclusive: 31.6 µM [inhibitor, partial curve, poor fit]
CCC(C)n1c(=N)c(C(=O)NCc2ccco2)cc2c(=O)n3cc(C)ccc3nc21 (centres undefined) | inconclusive: 89.1 µM [inhibitor, single point]
O=C(c1c[nH]c2ccc(S(=O)(=O)Nc3ccccc3F)cc2c1=O)N1CCCCCC1 | inactive
CC(C)c1ccc(C(=O)CC2(O)C(=O)N(CCc3ccccc3)c3ccc(Cl)cc32)cc1 (centres undefined) | inconclusive: 25.1 µM [inhibitor, partial curve, poor fit]
O=c1[nH]c(NCCO)c(N=Cc2ccccc2)c(=O)[nH]1 | inconclusive: 89.1 µM [inhibitor, partial curve, poor fit]
O=C(/C=C/c1ccc(O)c(O)c1)OCCc1ccccc1 | inconclusive: 44.7 µM [inhibitor, single point]
Cc1[nH]c2ccc(F)cc2c1CCN(Cc1cccnc1)C(=S)Nc1ccc(F)cc1 | inconclusive: 79.4 µM [inhibitor, partial curve, poor fit]
Cc1nnc(SCC(=O)Nc2sc3c(c2C#N)CCCCC3)n1N | inconclusive: 28.2 µM [inhibitor, single point]
CCn1c2ccccc2c2cc(NC(=O)C(=O)N3CCOCC3)ccc21 | inconclusive: 89.1 µM [inhibitor, partial curve]
CCN(CC)S(=O)(=O)c1ccc(Cl)c(NC(=O)COc2ccc3c(C)cc(=O)oc3c2)c1 | inconclusive: 89.1 µM [inhibitor, single point]
CCCc1ccc(C(=O)NNc2ccc(F)cc2)cc1 | inactive
Oc1c(/C=C/C=C/C=Nc2ccccc2)sc(=S)n1Cc1ccccc1 | inconclusive: 35.5 µM [inhibitor, partial curve, poor fit]
O=C(Nc1nc(-c2cc3ccccc3oc2=O)cs1)c1ccco1 | inconclusive: 35.5 µM [inhibitor, full curve]
Cc1occc1-c1nnc(SCc2cc(=O)n3cc(Br)ccc3n2)n1C | inconclusive: 31.6 µM [inhibitor, partial curve, poor fit]
COc1ccc(CN2C=C3C(=O)C(C)(OC(=O)C4CCCC4)C(=O)C=C3C=C2c2ccsc2)cc1 (centres undefined) | inactive
COc1ccc(NC(=O)c2ccc(NC(=O)CSc3nccc(=O)[nH]3)cc2)cc1 | active: 25.1 µM
NC(=O)c1ccc(NC(=O)COC(=O)/C=C/c2ccc(Br)o2)cc1 | active: 2.82 µM

SMILES | Potency
C=C1[C@@H](O)[C@H](CC(C)C)N(Cc2ccccc2Br)S1(=O)=O | active: 50.1 µM
CC1(C)C(=O)Nc2ccccc2N1C(=O)COc1ccccc1C#N | inconclusive: 35.5 µM [inhibitor, partial curve]
O=c1[nH]c(/C=C\c2ccc(O)cc2)nc(O)c1[N+](=O)[O-] | inconclusive: 50.1 µM [inhibitor, partial curve]
O=C(Cc1csc(-c2ccccc2)n1)NCc1cccs1 | inconclusive: 89.1 µM [inhibitor, partial curve, poor fit]
O=[N+]([O-])c1ccc(-c2nc(NCc3ccccc3)c3ccccc3n2)cc1 | active: 79.4 µM
COCc1ccc(-c2c(-c3cc(OC)cc(OC)c3)oc(=O)c3cc(OC)c(OC)cc23)cc1 | inconclusive: 79.4 µM [inhibitor, partial curve, poor fit]
CCN1C(=O)[C@@H]2[C@@H](c3ccc(-c4ccc5c(c4)OCO5)c(OC)c3)N3CCCC[C@@]3(C(=O)OC)[C@@H]2C1=O | inconclusive: 100 µM [inhibitor, partial curve, poor fit]
O=C1S/C(=C\c2ccc(O)c([N+](=O)[O-])c2)C(=O)N1Cc1cccc([N+](=O)[O-])c1 | inconclusive: 56.2 µM [inhibitor, partial curve, poor fit]
CCN(CC)c1ccc(SS(=O)(=O)O)cc1 | inconclusive: 11.2 µM [inhibitor, partial curve]
CC(=O)N1N=C(c2ccccc2)OC1c1ccc([N+](=O)[O-])s1 (centres undefined) | inconclusive: 79.4 µM [inhibitor, single point]
O=C(O)/C=C/c1nc(-c2ccccc2)n2ccccc12 | inconclusive: 20 µM [inhibitor, single point]
C/C(=N\Nc1nc2ccccc2[nH]1)c1ccc([N+](=O)[O-])cc1 | inconclusive: 50.1 µM [inhibitor, partial curve, poor fit]
COc1ccc(N(CC(=O)Nc2ccccc2C(=O)NCC(C)C)S(C)(=O)=O)cc1 | inconclusive: 100 µM [inhibitor, partial curve, poor fit]
Cn1c2cc(Br)sc2c2cnn(Cc3ccc(F)cc3F)c(=O)c21 | inactive
CCN(C[C@H]1N[C@@](C)(C(=O)OC)[C@H]2C(=O)N(C)C(=O)[C@@H]12)C(=O)COc1ccccc1 | inactive
COc1ccc(NS(=O)(=O)c2ccc3nc(COc4ccc5ccccc5c4)[nH]c3c2)cc1 | inconclusive: 20 µM [inhibitor, partial curve, poor fit]
CCOC(=O)c1sc(=NC(=O)c2ccc(Cl)s2)n(C)c1C | inconclusive: 25.1 µM [inhibitor, single point]
CC(/C=C1\SC(=S)N(CC(=O)O)C1=O)=C\c1ccccc1 | inconclusive: 79.4 µM [inhibitor, partial curve]
CC1CCC(NC(=O)c2ccc3c(c2)N(Cc2cccc(F)c2)C(=O)c2ccccc2S3)CC1 (centres undefined) | inconclusive: 89.1 µM [inhibitor, single point]
COc1ccc(NC(=O)Nc2ccc(OCc3ccccc3)cc2)cn1 | inactive
